Measured values as given in the supplement of paper PMC7726561.
Whole data set: some 1,400 sequences, median “thermal melting temperature (Tm) of peptide-HLA complex” near 60, cut for the lowest 2% near 45. The list shows a part of the results.

Molecular target: HLA-B*07:02
Experiment: thermal melting temperature (Tm) of peptide-HLA complex; higher = more thermostable pHLA complex
Details: C1R-B*07:02
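Further: cell lysates heated 10 min at 37–73 °C, remaining pHLA pulled down with pan-class I antibody, peptides quantified by DIA-MS versus 37 °C, Tm where half the complex is lost.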

Sequence	thermal melting temperature [°C]
APSSPRPALP	60.2
VPRPPSLL	61.2
SPWLHAPSL	54.8
APRTVALTALL	62.8
AVILRALSL	61.1
RPGWLTVSL	59.2
APRLQSEVAEL	61.9
IPNLRDSL	61.4
APRPLQAGPAM	60.1
LPNVGKSSL	54.1
APAPAAQRL	56.9
SPRLLEVTNTI	61
RPAPHPLFL	60.3
SPNSSILWL	61.7
LPRTVTQLV	45.6
RPKTPPVVI	59.6
QPASFAVSL	62.8
LPRVGVGTSF	60.9
LPSQKTASL	57.7

Sequence	thermal melting temperature [°C]
LPKIPSNATL	60
HPRDPNLLLSV	61.8
QPHLSRQDL	56.2
FPSPIRLEF	61.9
YPLPSARAL	59.5
LPRPVPLVA	61.5
APAQTPAPAL	56.9
KPKETVPTL	54.3
SPGPSRPGL	56.1
WPRAGAPGAL	59.2
LPRGVLEGL	62.8
TIASQRLTPL	59.5
LPDVPRIFL	59.3
IPKSAVGEL	58.3
SPISHFLDL	63.1
SPSNTRYLFL	63.2
APNYRLKSL	62.1
VPYKVPAGVSL	62.1
GPAIERMGL	61.1

Sequence	thermal melting temperature [°C]
TPAVGRLEV	60.6
YPAPGLKTFL	60.3
GPRNVLLFL	55.1
FPRSVVEFL	62
SPWTGRFYSL	56.7
SPRGAGYLF	63
SPNTAGLRSL	53.9
VPRPPSNPP	56.4
APDSQRLKL	59
KPAQFATTVL	60.1
RPAAGFVAGL	57
VPQGSKLEL	57.7
IPDLKVGTL	46.6
VPHPNWPNHTL	58.2
TPAVGPPL	63.6
NPRFGGKEL	56.2
TPRKPVLSV	61.6
WPKDVGIVA	61.3
